# Experimental data as given in the supplement of paper PMC8728848.
# The other results are listed elsewhere or left out.
# B1: DC-ASGPR-short (Homo sapiens) (protein)
# chain: MTRTYENFQYLENKVKVQGFKNGPLPLQSLLQRLRSGPCHLLLSLGLGLLLLVIICVVGFQNSKFQRDLVTLRTDFSNFTSNTVAEIQALTSQGSSLEETIASLKAEVEGFKQERQAVHSEMLLRVQQLVQDLKKLTCQVATLNNNASTEGTCCPVNWVEHQDSCYWFSHSGMSWAEAEKYCQLKNAHLVVINSREEQNFVQKYLGSAYTWMGLSDPEGAWKWVDGTDYATGFQNWKPGQPDDWQGHGLGGGEDCAHFHPDGRWNDDVCQRPYHWVCEAGLGQTSQESH
# How the values were obtained:
# Assay in all cases: glycan array binding signal (z-score within array); higher = stronger binding
# Conditions in all cases: glycan notation: IUPAC condensed, linker removed
# [1] = target: GlcNAc(b1-2)[GlcNAc(b1-4)]Man(a1-3)[GlcNAc(b1-4)][GlcNAc(b1-2)Man(a1-6)]Man(b1-4)GlcNAc(b1-4)GlcNAc
# How it was run: (§1)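 Columns mapping to the same glycan were averaged after glycan names were converted to IUPAC-condensed notation. The data come from 3228 arrays in the Consortium for Functional Glycomics database, limited to those with an available protein sequence. Binding is reported as a within-array Z-score averaged across arrays of one protein sequence and across linkers.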
# [2] = target: GlcNAc(b1-2)[GlcNAc(b1-4)]Man(a1-3)[GlcNAc(b1-4)][GlcNAc(b1-2)[GlcNAc(b1-6)]Man(a1-6)]Man(b1-4)GlcNAc(b1-4)GlcNAc
# How it was run: as §1
# [3] = target: GlcNAc(b1-2)[GlcNAc(b1-4)]Man(a1-3)[GlcNAc(b1-4)][GlcNAc(b1-2)[GlcNAc(b1-6)]Man(a1-6)]Man(b1-4)GlcNAc(b1-4)[Fuc(a1-6)]GlcNAc
# How it was run: as §1
# [4] = target: GlcNAc(b1-2)[GlcNAc(b1-6)]Man(a1-6)[GlcNAc(b1-2)Man(a1-3)]Man(b1-4)GlcNAc(b1-4)GlcNAc
# How it was run: as §1
# [5] = target: GlcNAc(b1-2)[GlcNAc(b1-6)]Man(a1-6)[GlcNAc(b1-2)Man(a1-3)]Man(b1-4)GlcNAc(b1-4)[Fuc(a1-6)]GlcNAc
# How it was run: as §1
# [6] = target: GlcNAc(b1-2)[GlcNAc(b1-6)]Man(a1-6)[GlcNAc(b1-4)][GlcNAc(b1-2)Man(a1-3)]Man(b1-4)GlcNAc(b1-4)GlcNAc
# How it was run: as §1
# GlcNAc(b1-3)Fuc = target: GlcNAc(b1-3)Fuc
# How it was run: as §1
# GlcNAc(b1-3)Gal = target: GlcNAc(b1-3)Gal
# How it was run: as §1
# [7] = target: GlcNAc(b1-3)Gal(b1-3)GalNAc
# How it was run: as §1
# GlcNAc(b1-3)Gal(b1-4)Glc = target: GlcNAc(b1-3)Gal(b1-4)Glc
# How it was run: as §1
# [8] = target: GlcNAc(b1-3)Gal(b1-4)GlcNAc
# How it was run: as §1
# [9] = target: GlcNAc(b1-3)Gal(b1-4)GlcNAc(b1-2)Man(a1-3)[GlcNAc(b1-3)Gal(b1-4)GlcNAc(b1-2)Man(a1-6)]Man(b1-4)GlcNAc(b1-4)GlcNAc
# How it was run: as §1
# [10] = target: GlcNAc(b1-3)Gal(b1-4)GlcNAc(b1-2)Man(a1-3)[GlcNAc(b1-3)Gal(b1-4)GlcNAc(b1-2)Man(a1-6)]Man(b1-4)GlcNAc(b1-4)[Fuc(a1-6)]GlcNAc
# How it was run: as §1
# [11] = target: GlcNAc(b1-3)Gal(b1-4)GlcNAc(b1-2)[GlcNAc(b1-3)Gal(b1-4)GlcNAc(b1-6)]Man(a1-6)[GlcNAc(b1-3)Gal(b1-4)GlcNAc(b1-2)Man(a1-3)]Man(b1-4)GlcNAc(b1-4)GlcNAc
# How it was run: as §1
# [12] = target: GlcNAc(b1-3)Gal(b1-4)GlcNAc(b1-3)Gal(b1-4)GlcNAc
# How it was run: as §1
# [13] = target: GlcNAc(b1-3)Gal(b1-4)GlcNAc(b1-3)Gal(b1-4)GlcNAc(b1-2)Man(a1-3)[GlcNAc(b1-3)Gal(b1-4)GlcNAc(b1-3)Gal(b1-4)GlcNAc(b1-2)Man(a1-6)]Man(b1-4)GlcNAc(b1-4)GlcNAc
# How it was run: as §1
# [14] = target: GlcNAc(b1-3)Gal(b1-4)GlcNAc(b1-3)Gal(b1-4)GlcNAc(b1-2)Man(a1-3)[GlcNAc(b1-3)Gal(b1-4)GlcNAc(b1-3)Gal(b1-4)GlcNAc(b1-2)Man(a1-6)]Man(b1-4)GlcNAc(b1-4)[Fuc(a1-6)]GlcNAc
# How it was run: as §1
# [15] = target: GlcNAc(b1-3)Gal(b1-4)GlcNAc(b1-3)Gal(b1-4)GlcNAc(b1-2)[GlcNAc(b1-3)Gal(b1-4)GlcNAc(b1-3)Gal(b1-4)GlcNAc(b1-6)]Man(a1-6)[GlcNAc(b1-3)Gal(b1-4)GlcNAc(b1-3)Gal(b1-4)GlcNAc(b1-2)Man(a1-3)]Man(b1-4)GlcNAc(b1-4)[Fuc(a1-6)]GlcNAc
# How it was run: as §1
# [16] = target: GlcNAc(b1-3)Gal(b1-4)GlcNAc(b1-3)Gal(b1-4)GlcNAc(b1-3)Gal(b1-4)GlcNAc(b1-2)Man(a1-3)[GlcNAc(b1-3)Gal(b1-4)GlcNAc(b1-3)Gal(b1-4)GlcNAc(b1-3)Gal(b1-4)GlcNAc(b1-2)Man(a1-6)]Man(b1-4)GlcNAc(b1-4)GlcNAc
# How it was run: as §1
# [17] = target: GlcNAc(b1-3)Gal(b1-4)GlcNAc(b1-3)Gal(b1-4)GlcNAc(b1-3)Gal(b1-4)GlcNAc(b1-2)Man(a1-3)[GlcNAc(b1-3)Gal(b1-4)GlcNAc(b1-3)Gal(b1-4)GlcNAc(b1-3)Gal(b1-4)GlcNAc(b1-2)Man(a1-6)]Man(b1-4)GlcNAc(b1-4)[Fuc(a1-6)]GlcNAc
# How it was run: as §1
# [18] = target: GlcNAc(b1-3)Gal(b1-4)GlcNAc(b1-3)Gal(b1-4)GlcNAc(b1-3)Gal(b1-4)GlcNAc(b1-2)[GlcNAc(b1-3)Gal(b1-4)GlcNAc(b1-3)Gal(b1-4)GlcNAc(b1-3)Gal(b1-4)GlcNAc(b1-6)]Man(a1-6)[GlcNAc(b1-3)Gal(b1-4)GlcNAc(b1-3)Gal(b1-4)GlcNAc(b1-3)Gal(b1-4)GlcNAc(b1-2)Man(a1-3)]Man(b1-4)GlcNAc(b1-4)[Fuc(a1-6)]GlcNAc
# How it was run: as §1
# [19] = target: GlcNAc(b1-3)Gal(b1-4)GlcNAc(b1-3)Gal(b1-4)GlcNAc(b1-3)Gal(b1-4)GlcNAc(b1-3)Gal(b1-4)GlcNAc(b1-2)Man(a1-3)[GlcNAc(b1-3)Gal(b1-4)GlcNAc(b1-3)Gal(b1-4)GlcNAc(b1-3)Gal(b1-4)GlcNAc(b1-3)Gal(b1-4)GlcNAc(b1-2)Man(a1-6)]Man(b1-4)GlcNAc(b1-4)GlcNAc
# How it was run: as §1
# [20] = target: GlcNAc(b1-3)Gal(b1-4)GlcNAc(b1-3)Gal(b1-4)GlcNAc(b1-3)Gal(b1-4)GlcNAc(b1-3)Gal(b1-4)GlcNAc(b1-2)Man(a1-3)[GlcNAc(b1-3)Gal(b1-4)GlcNAc(b1-3)Gal(b1-4)GlcNAc(b1-3)Gal(b1-4)GlcNAc(b1-3)Gal(b1-4)GlcNAc(b1-2)Man(a1-6)]Man(b1-4)GlcNAc(b1-4)[Fuc(a1-6)]GlcNAc
# How it was run: as §1
# [21] = target: GlcNAc(b1-3)Gal(b1-4)GlcNAc(b1-3)Gal(b1-4)GlcNAc(b1-3)Gal(b1-4)GlcNAc(b1-3)Gal(b1-4)GlcNAc(b1-2)[GlcNAc(b1-3)Gal(b1-4)GlcNAc(b1-3)Gal(b1-4)GlcNAc(b1-3)Gal(b1-4)GlcNAc(b1-3)Gal(b1-4)GlcNAc(b1-6)]Man(a1-6)[GlcNAc(b1-3)Gal(b1-4)GlcNAc(b1-3)Gal(b1-4)GlcNAc(b1-3)Gal(b1-4)GlcNAc(b1-3)Gal(b1-4)GlcNAc(b1-2)Man(a1-3)]Man(b1-4)GlcNAc(b1-4)[Fuc(a1-6)]GlcNAc
# How it was run: as §1
# [22] = target: GlcNAc(b1-3)Gal(b1-4)GlcNAc(b1-3)Gal(b1-4)GlcNAc(b1-3)GalNAc
# How it was run: as §1
# [23] = target: GlcNAc(b1-3)Gal(b1-4)GlcNAc(b1-3)GalNAc
# How it was run: as §1
# [24] = target: GlcNAc(b1-3)Gal(b1-4)GlcNAc(b1-3)[GlcNAc(b1-3)Gal(b1-4)GlcNAc(b1-3)]GalNAc
# How it was run: as §1
# [25] = target: GlcNAc(b1-3)Gal(b1-4)GlcNAc(b1-6)[Gal(b1-3)]GalNAc
# How it was run: as §1
# [26] = target: GlcNAc(b1-3)Gal(b1-4)GlcNAc(b1-6)[GlcNAc(b1-3)Gal(b1-3)]GalNAc
# How it was run: as §1
# [27] = target: GlcNAc(b1-3)Gal(b1-4)GlcNAc(b1-6)[GlcNAc(b1-3)]Gal(b1-4)GlcNAc
# How it was run: as §1
# GlcNAc(b1-3)GalNAc = target: GlcNAc(b1-3)GalNAc
# How it was run: as §1
# GlcNAc(b1-3)Man = target: GlcNAc(b1-3)Man
# How it was run: as §1
# [28] = target: GlcNAc(b1-3)[GlcNAc(b1-4)][GlcNAc(b1-6)]GlcNAc
# How it was run: as §1
# [29] = target: GlcNAc(b1-3)[GlcNAc(b1-6)]Gal(b1-4)GlcNAc
# How it was run: as §1
# [30] = target: GlcNAc(b1-3)[GlcNAc(b1-6)]GalNAc
# How it was run: as §1
# [31] = target: GlcNAc(b1-4)Gal(b1-4)GlcNAc
# How it was run: as §1
# GlcNAc(b1-4)GlcNAc = target: GlcNAc(b1-4)GlcNAc
# How it was run: as §1
# [32] = target: GlcNAc(b1-4)GlcNAc(b1-4)GlcNAc
# How it was run: as §1
binder,measurement,setting,value
B1,glycan array binding signal (z-score),[1],-0.268
same,glycan array binding signal (z-score),[2],-0.276
same,glycan array binding signal (z-score),[3],-0.268
same,glycan array binding signal (z-score),[4],-0.275
same,glycan array binding signal (z-score),[5],-0.282
same,glycan array binding signal (z-score),[6],-0.276
same,glycan array binding signal (z-score),GlcNAc(b1-3)Fuc,-0.264
same,glycan array binding signal (z-score),GlcNAc(b1-3)Gal,-0.307
same,glycan array binding signal (z-score),[7],-0.241
same,glycan array binding signal (z-score),GlcNAc(b1-3)Gal(b1-4)Glc,-0.282
same,glycan array binding signal (z-score),[8],-0.286
same,glycan array binding signal (z-score),[9],-0.28
same,glycan array binding signal (z-score),[10],-0.24
same,glycan array binding signal (z-score),[11],-0.159
same,glycan array binding signal (z-score),[12],-0.285
same,glycan array binding signal (z-score),[13],-0.247
same,glycan array binding signal (z-score),[14],-0.215
same,glycan array binding signal (z-score),[15],-0.224
same,glycan array binding signal (z-score),[16],-0.258
same,glycan array binding signal (z-score),[17],-0.191
same,glycan array binding signal (z-score),[18],-0.236
same,glycan array binding signal (z-score),[19],-0.245
same,glycan array binding signal (z-score),[20],-0.179
same,glycan array binding signal (z-score),[21],-0.219
same,glycan array binding signal (z-score),[22],-0.276
same,glycan array binding signal (z-score),[23],-0.393
same,glycan array binding signal (z-score),[24],-0.295
same,glycan array binding signal (z-score),[25],-0.236
same,glycan array binding signal (z-score),[26],-0.232
same,glycan array binding signal (z-score),[27],-0.282
same,glycan array binding signal (z-score),GlcNAc(b1-3)GalNAc,-0.272
same,glycan array binding signal (z-score),GlcNAc(b1-3)Man,-0.267
same,glycan array binding signal (z-score),[28],-0.27
same,glycan array binding signal (z-score),[29],-0.266
same,glycan array binding signal (z-score),[30],-0.234
same,glycan array binding signal (z-score),[31],-0.264
same,glycan array binding signal (z-score),GlcNAc(b1-4)GlcNAc,-0.283
same,glycan array binding signal (z-score),[32],-0.28
